Assay [1] deals with PD-1 on PD-1 Effector Cells (Promega) (UniProt Q15116). Kind of assay: cell-based or functional assay.
The next assay has as its target PD-1抗原 (UniProt Q15116). Kind of assay: competitive ELISA, PD-1 antigen coated, competitor PD-L1 at a fixed concentration; ratio to standard from fitted EC50. In general terms: An ELISA detects its analyte on a solid surface through an enzyme-linked reagent.

Several values for one entry are separate records, joined by “and”; a condition that tells them apart may be missing. Identical values can stand only once.

B1: 抗PD-1抗体SYN125 (antibody, part only; not given: nothing essential, part only)
heavy: QVTLKESGPALVKPTQTLTLTCTFSGFSLSTSGTCVSWIRQPPGKALEWLATICWEDSKGYNPSLKSRLTISKDTSKNQAVLTMTNMDPVDTATYYCARREDSGYFWFPYWGQGTLVTVSSASTKGPSVFPLAPCSRSTSESTAALGCLVKDYFPEPVTVSWNSGALTSGVHTFPAVLQSSGLYSLSSVVTVPSSSLGTKTYTCNVDHKPSNTKVDKRV[letters of human IgG4 Fc with S228P (EU numbers) omitted]
B1: the 生物学活性检测结果 (relative to reference SYN125-RS02; NFAT-RE luminescence reporter, PD-1 Effector Cells + PD-L1 aAPC/CHO-K1 Cells) in assay [1] is 76% and 87%. Besides, in the assay with PD-1抗原, the 平均比活性 (relative blocking activity against standard SYN125-RS02) was 105% and 85%.

The values above are taken from patent CN109498565A.
